Results on 98 variants are retold here after a collection of fitness landscapes (doi:10.1016/j.celrep.2020.107928).

The full ranking holds about 81,000 sequences; the median of “one-hybrid fitness for binding NBS DNA” is about -0.1, and the highest 2% start at about 0.36. Some of the results follow.

To fix the notation:
B1: Caulobacter ParB omega fusion; a variant is named by its letters at X, in order, B8GW30 (parent)
chain: MESVVVGEPGMSEGRRGLGRGLSALLGEVDAAPAQAPGEQLGGSREAPIEILQRNPDQPRRTFREEDLEDLSNSIREKGVLQPILVRPSPDTAGEYQIVAGERAWRAAQRAGLKTVPIMVRELDDLAVLEIGIIENVQRADLNVLEEALSYKVLMEKFERTQENIAQTIGKSXSHVANXMRLLXLPDEVQSYLVSGELTAXHARAIAAAADPVALAKQIIEGGLSVRETEALARKAPNLSAGKSKGGRPPRVKDTDTQALESDLSSVLGLDVSIDHRGSTGTLTITYATLEQLDDLCNRLTRGI

In this test the parent is B1. Briefly: one-hybrid fitness for binding NBS DNA (the Noc-binding site; scaled: cognate 1, non-cognate 0); higher = stronger binding. Conditions: with NBS DNA site. The gist of the method:
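The reporter was HIS3, with the binding site 19 bp from the promoter, in E. coli USO used for bacterial one-hybrid selection of Caulobacter ParB libraries with four specificity codons randomised. Growth was on M9 lacking histidine, with 0.1 mM IPTG and 5 mM 3-AT, for 48 hours at 37°C. Illumina sequencing covered plasmids before and after selection; three replicate libraries were pooled and variants with under 10 reads dropped. A fitness score is the log change in variant-to-wild-type read ratio, rescaled to the cognate and non-cognate references.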
Consider SSFF, for which the “one-hybrid fitness for binding NBS DNA” value is not above 0.2.
Regarding QSPC, the “one-hybrid fitness for binding NBS DNA” value is not above 0.2.
Take LHRQ: the “one-hybrid fitness for binding NBS DNA” value is not above 0.2.
As for MILE, the figure is not above 0.2; as for NVRM, not above 0.2; as for LEQS, not above 0.2.
As for TMQT, the figure is not above 0.2; as for MSGR, not above 0.2; as for TFRN, not above 0.2.
With IYDK the figure was not above 0.2.
For FGNS, the “one-hybrid fitness for binding NBS DNA” value was not above 0.2.
In the case of TYWC, the “one-hybrid fitness for binding NBS DNA” value was not above 0.2.
As for FVRV, the figure is not above 0.2; as for WTSG, not above 0.2.
With MMWR the figure was not above 0.2; with LAVN, not above 0.2; with DDCS, not above 0.2.
For PGRH, the “one-hybrid fitness for binding NBS DNA” value was not above 0.2.
With TCSN the figure was not above 0.2.
With FNFV, the “one-hybrid fitness for binding NBS DNA” value is not above 0.2.
As for ITSV, the “one-hybrid fitness for binding NBS DNA” value was not above 0.2.
With PEMV the figure was not above 0.2; with LHRK, not above 0.2.
With TDTE the figure was not above 0.2.
Take RKHF: the “one-hybrid fitness for binding NBS DNA” value is not above 0.2.
In the case of DRMS, the “one-hybrid fitness for binding NBS DNA” value is not above 0.2.
In the case of WAPI, the “one-hybrid fitness for binding NBS DNA” value is not above 0.2.
Consider VRKS, for which the “one-hybrid fitness for binding NBS DNA” value was 0.309.
With RVTI the figure was not above 0.2; with GCTS, not above 0.2.
With PSDG the figure was not above 0.2; with MGDS, not above 0.2.
Turning to ARHA, the “one-hybrid fitness for binding NBS DNA” value is not above 0.2.
As to LLRF, the “one-hybrid fitness for binding NBS DNA” value was not above 0.2.
As to PLSV, the “one-hybrid fitness for binding NBS DNA” value is not above 0.2.
Turning to TQEC, the “one-hybrid fitness for binding NBS DNA” value is not above 0.2.
As for VRTL, the figure is not above 0.2; as for DADM, not above 0.2.
As to NVEG, the “one-hybrid fitness for binding NBS DNA” value was not above 0.2.
Take LGRQ: the “one-hybrid fitness for binding NBS DNA” value is not above 0.2.
With CRGV the figure was not above 0.2.
As for RDLW, the figure is not above 0.2; as for GNQR, not above 0.2; as for RCGV, not above 0.2.
As for NHLT, the figure is not above 0.2.
As to NAMT, the “one-hybrid fitness for binding NBS DNA” value is not above 0.2.
As for IFCS, the figure is not above 0.2; as for TMIR, not above 0.2; as for KHHF, not above 0.2.
As to GHCS, the “one-hybrid fitness for binding NBS DNA” value was not above 0.2.
With GCPK, the “one-hybrid fitness for binding NBS DNA” value is not above 0.2.
On to DHGG, for which the “one-hybrid fitness for binding NBS DNA” value was not above 0.2.
As for VGIT, the figure is not above 0.2; as for GILG, not above 0.2.
For APNN, the “one-hybrid fitness for binding NBS DNA” value was not above 0.2.
As for PHGT, the figure is not above 0.2; as for CVLI, not above 0.2.
With DKAD the figure was not above 0.2; with PNRG, not above 0.2; with YHDR, not above 0.2.
For LQTA, the “one-hybrid fitness for binding NBS DNA” value is not above 0.2.
As for NWTR, the figure is not above 0.2; as for RILM, not above 0.2; as for TVRD, not above 0.2.
With TGTI the figure was not above 0.2; with MVNC, not above 0.2.
With WGKM, the “one-hybrid fitness for binding NBS DNA” value was not above 0.2.
With TESM, the “one-hybrid fitness for binding NBS DNA” value is not above 0.2.
With YKSY the figure was not above 0.2.
With SRTL the figure was not above 0.2.
For IYRS, the “one-hybrid fitness for binding NBS DNA” value was not above 0.2.
With PFVT the figure was not above 0.2.
NKNV: the “one-hybrid fitness for binding NBS DNA” value was not above 0.2.
For the variant NLNL, the “one-hybrid fitness for binding NBS DNA” value is not above 0.2.
As for HREW, the “one-hybrid fitness for binding NBS DNA” value was not above 0.2.
With DNSE the figure was not above 0.2.
Consider HGSI, for which the “one-hybrid fitness for binding NBS DNA” value is not above 0.2.
As for CQNC, the figure is not above 0.2.
For the variant AGTK, the “one-hybrid fitness for binding NBS DNA” value was not above 0.2.
With MYYS, the “one-hybrid fitness for binding NBS DNA” value is not above 0.2.
As for YMHA, the figure is not above 0.2; as for THIR, not above 0.2.
On to HVGS, for which the “one-hybrid fitness for binding NBS DNA” value is not above 0.2.
As for VDMT, the figure is not above 0.2; as for KVWM, not above 0.2.
As for QKVG, the figure is not above 0.2; as for YLTS, not above 0.2.
For LYER, the “one-hybrid fitness for binding NBS DNA” value is not above 0.2.
With QRDW, the “one-hybrid fitness for binding NBS DNA” value is not above 0.2.
TTRA: the “one-hybrid fitness for binding NBS DNA” value was not above 0.2.
Regarding FPVS, the “one-hybrid fitness for binding NBS DNA” value was not above 0.2.
With WRHT the figure was not above 0.2; with RQCS, 0.278.
In the case of QICW, the “one-hybrid fitness for binding NBS DNA” value is not above 0.2.
In the case of CEKE, the “one-hybrid fitness for binding NBS DNA” value was not above 0.2.
For the variant NPIH, the “one-hybrid fitness for binding NBS DNA” value was not above 0.2.
With HFKC, the “one-hybrid fitness for binding NBS DNA” value is not above 0.2.
With CVGR the figure was not above 0.2.
